From the supplement of paper PMC4967469
IC50 is the fitted dose that halves viability relative to control wells, and lower means more sensitive; where the fit passes the top or lowest dose, that dose stands as a limit. AUC is the area under the same curve over the 256-fold range up to the top dose, as a fraction; the more sensitive the line, the further below 1. For some assays here: A top dose marked as inferred was calculated from the reported fits.

How the values were obtained:
Assay in all cases: Viability of human cancer cell lines after 72 h of drug (GDSC screen)
[1] = compound: CC1(C)CCC(c2ccc(Cl)cc2)=C(CN2CCN(c3ccc(C(=O)NS(=O)(=O)c4ccc(N[C@H](CCN5CCOCC5)CSc5ccccc5)c(S(=O)(=O)C(F)(F)F)c4)cc3)CC2)C1 [ABT-263]; settings: top dose 2 µM; top dose inferred
Method: (§1)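 Human cancer cell lines in 384-well plates, medium with 10% serum, drug for 72 h over a 256-fold dose range (nine 2-fold or five 4-fold steps up to the top dose). Adherent lines were fixed and stained with the nucleic acid dye Syto60, suspension lines read with resazurin; signal relative to control wells, capped at 0 and 100%. One two-parameter sigmoid per drug and line, fitted in a mixed model over all curves with the slope shared within a line.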

[2] = compound: Cn1cc(/C=C2\C(=O)Nc3cccnc32)c2ccccc21 [GW 441756]; settings: top dose 2 µM; top dose inferred
Method: as §1

[3] = compound: CC(=O)Nc1nc(C)c(-c2ccc(Cl)c(S(=O)(=O)NCCO)c2)s1 [PIK-93]; settings: top dose 20 µM
Method: as §1

[4] = compound: COc1cc(/C=C/C(=O)N2CCC=CC2=O)cc(OC)c1OC [piperlongumine]; settings: top dose 10 µM
Method: as §1

Row | Cell Line | AUC [1] | IC50 [1] [nM] | AUC [2] | IC50 [2] [nM] | AUC [3] | IC50 [3] [µM] | AUC [4] | IC50 [4] [µM]
1 | CCK-81 (large intestine, adherent) | 0.989 | > 2000 | 0.99 | > 2000 | 0.854 | 14.4 | 0.984 | > 10
2 | CFPAC-1 (pancreas, adherent) | 0.95 | > 2000 | 0.968 | > 2000 | 0.928 | > 20 | 0.753 | 3.79
3 | CHL-1 (melanoma, adherent) | 0.985 | > 2000 | 0.985 | > 2000 | 0.643 | 3.04 | 0.599 | 1.15
4 | CHP-212 (neuroblastoma, adherent) | 0.767 | 691 | 0.944 | > 2000 | 0.984 | > 20 | 0.79 | 4.08
5 | CHSA0011 (chondrosarcoma, adherent) | 0.975 | > 2000 | 0.897 | > 2000 | 0.923 | > 20 | 0.814 | 8.52
6 | CHSA0108 (chondrosarcoma, adherent) | 0.963 | > 2000 | 0.981 | > 2000 | 0.888 | > 20 | 0.79 | 5.25
7 | CHSA8926 (chondrosarcoma, adherent) | 0.911 | > 2000 | 0.925 | > 2000 | 0.759 | 9.87 | 0.788 | 6.54
8 | COLO-205 (large intestine, suspension) | 0.774 | 773 | 0.987 | > 2000 | 0.867 | 17.6 | 0.823 | 5.81
9 | COLO-678 (large intestine, semi-adherent) | 0.97 | > 2000 | 0.94 | > 2000 | 0.952 | > 20 | 0.898 | > 10
10 | COLO-679 (melanoma, adherent) | 0.985 | > 2000 | 0.985 | > 2000 | 0.909 | > 20 | 0.766 | 4.12
11 | COLO-680N (oesophagus, adherent) | 0.975 | > 2000 | 0.982 | > 2000 | 0.985 | > 20 | 0.851 | > 10
12 | COLO-783 (melanoma, adherent) | 0.581 | 207 | 0.919 | > 2000 | 0.952 | > 20 | 0.985 | > 10
13 | COR-L23 (large cell lung carcinoma, adherent) | 0.95 | > 2000 | 0.988 | > 2000 | 0.766 | 7.16 | 0.705 | 2.32
14 | COR-L321 (lung, suspension) | 0.841 | 1380 | 0.98 | > 2000 | 0.803 | 9.9 | 0.954 | > 10
15 | CP50-MEL-B (melanoma, adherent) | 0.937 | > 2000 | 0.988 | > 2000 | 0.765 | 7.23 | 0.792 | 4.46
16 | CS1 (bone, adherent) | 0.792 | 1030 | 0.938 | > 2000 | 0.68 | 4.25 | 0.7 | 2.46

Row | Cell Line | AUC [1] | IC50 [1] [nM] | AUC [2] | IC50 [2] [nM] | AUC [3] | IC50 [3] [µM] | AUC [4] | IC50 [4] [µM]
17 | Ca9-22 (head and neck, adherent) | 0.949 | > 2000 | 0.989 | > 2000 | 0.825 | 10.9 | 0.573 | 0.973
18 | Ca-Ski (cervix, adherent) | 0.892 | > 2000 | 0.897 | > 2000 | 0.583 | 2.16 | 0.627 | 1.47
19 | CaR-1 (large intestine, adherent) | 0.963 | > 2000 | 0.972 | > 2000 | 0.929 | > 20 | 0.783 | 6.72
20 | Calu-3 (lung adenocarcinoma, adherent) | 0.868 | > 2000 | 0.976 | > 2000 | 0.826 | 16.5 | 0.822 | 7.88
21 | Caov-4 (ovary, adherent) | 0.98 | > 2000 | 0.723 | 730 | 0.906 | > 20 | 0.796 | 7.41
22 | Capan-2 (pancreas, adherent) | 0.959 | > 2000 | 0.985 | > 2000 | 0.963 | > 20 | 0.878 | > 10
23 | D-423MG (glioma, adherent) | 0.973 | > 2000 | 0.98 | > 2000 | 0.53 | 1.54 | 0.712 | 2.88
24 | D-566MG (glioma, adherent) | 0.921 | > 2000 | 0.986 | > 2000 | 0.771 | 7.56 | 0.655 | 1.67
25 | DAN-G (pancreas, adherent) | 0.952 | > 2000 | 0.985 | > 2000 | 0.889 | 17.9 | 0.831 | 5.27
26 | DBTRG-05MG (glioma, adherent) | 0.769 | 887 | 0.977 | > 2000 | 0.866 | > 20 | 0.786 | 5.12
27 | DK-MG (glioma, adherent) | 0.966 | > 2000 | 0.973 | > 2000 | 0.818 | 19.3 | 0.776 | 6.19
28 | DMS-273 (small cell lung carcinoma, adherent) | 0.97 | > 2000 | 0.971 | > 2000 | 0.467 | 1.01 | 0.662 | 1.82
29 | DOK (head and neck, adherent) | 0.799 | 1600 | 0.953 | > 2000 | 0.962 | > 20 | 0.77 | 5.9
30 | DOV13 (ovary, adherent) | 0.908 | > 2000 | 0.953 | > 2000 | 0.96 | > 20 | 0.656 | 1.81
31 | DU-145 (prostate, adherent) | 0.755 | 749 | 0.839 | 1590 | 0.948 | > 20 | 0.734 | 3.17
